Test results published in PMC4336329 (PLoS ONE, 2015).
Out of some 310,000 compounds screened, about 14,000 (4.5%) showed an effect of 50% or more. Effects have a minus sign here. The list shows a part of the results.

Biological target: human ether-à-go-go-related gene (hERG) potassium channel (human, UniProt Q12809)
Assay: primary screen, population patch clamp on CHO cells stably expressing hERG
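Further: peak tail current of the secondary pulse compared with the same well before compound.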

human ether-à-go-go-related gene (hERG) potassium channel, sequence (Q12809 whole entry, looked up): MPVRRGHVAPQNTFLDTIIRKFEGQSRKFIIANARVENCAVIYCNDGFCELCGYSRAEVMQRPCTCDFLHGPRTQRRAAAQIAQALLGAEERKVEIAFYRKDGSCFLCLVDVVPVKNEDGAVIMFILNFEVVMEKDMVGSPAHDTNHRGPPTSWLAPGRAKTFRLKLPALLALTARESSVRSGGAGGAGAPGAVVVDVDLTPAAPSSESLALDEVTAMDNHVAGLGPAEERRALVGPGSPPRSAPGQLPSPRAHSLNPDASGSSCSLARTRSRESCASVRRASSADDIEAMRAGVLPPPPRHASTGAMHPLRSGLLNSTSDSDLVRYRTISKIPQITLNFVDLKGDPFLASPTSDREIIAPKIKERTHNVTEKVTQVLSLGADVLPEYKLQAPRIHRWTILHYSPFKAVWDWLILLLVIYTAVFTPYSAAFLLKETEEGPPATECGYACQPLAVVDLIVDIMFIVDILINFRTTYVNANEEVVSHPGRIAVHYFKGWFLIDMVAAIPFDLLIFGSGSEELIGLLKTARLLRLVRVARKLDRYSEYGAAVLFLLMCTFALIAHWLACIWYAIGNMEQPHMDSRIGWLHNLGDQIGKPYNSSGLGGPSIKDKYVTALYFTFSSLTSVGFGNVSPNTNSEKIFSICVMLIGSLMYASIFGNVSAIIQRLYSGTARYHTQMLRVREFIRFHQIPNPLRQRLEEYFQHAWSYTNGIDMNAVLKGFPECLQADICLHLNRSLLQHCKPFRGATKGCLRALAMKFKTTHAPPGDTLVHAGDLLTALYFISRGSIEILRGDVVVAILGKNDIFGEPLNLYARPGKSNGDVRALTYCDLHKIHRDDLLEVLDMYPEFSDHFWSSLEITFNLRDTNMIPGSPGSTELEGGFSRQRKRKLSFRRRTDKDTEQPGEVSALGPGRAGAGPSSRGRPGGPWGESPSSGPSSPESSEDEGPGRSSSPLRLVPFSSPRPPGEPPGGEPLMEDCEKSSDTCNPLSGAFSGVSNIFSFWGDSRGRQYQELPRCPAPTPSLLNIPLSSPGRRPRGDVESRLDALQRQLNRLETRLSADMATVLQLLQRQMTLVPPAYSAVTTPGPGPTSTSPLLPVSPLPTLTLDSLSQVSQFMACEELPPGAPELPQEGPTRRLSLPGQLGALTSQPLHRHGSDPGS

First: O=c1cc(CCl)nc(Cc2c(Cl)cccc2Cl)[nH]1
Second: O=C(NCCOc1ccccc1Cl)c1cc(F)c(F)cc1Cl
The “hERG current change (%, negative = inhibition) at 10uM” value of the first is higher: 20.8% for the first, -17.9% for the second.

First: CC(=O)N1CCN(C(=O)c2ccc(S(=O)(=O)Nc3ccccc3C)cc2)CC1
Second: Cc1cc(Cl)ccc1NC(=O)CN1CCN(C(=O)c2ccco2)CC1
The “hERG current change (%, negative = inhibition) at 10uM” value of the first is higher: 3.04% for the first, -73.6% for the second.

Compared with `COC(=O)c1oc(-c2ccccc2)nc1C`, `O=C(O)COn1c(-c2ccccc2)nc2ccc([N+](=O)[O-])cc21` is lower in “hERG current change (%, negative = inhibition) at 10uM” value: 60.7% for the first, 11.3% for the second.

Going from `C=CCn1c(-c2ccoc2C)n[nH]c1=S` to `Fc1ccc(/C=N/n2c(-c3cccs3)n[nH]c2=S)cc1`, the “hERG current change (%, negative = inhibition) at 10uM” value rises from 7.79% to 23.7%.

Compared with `Cc1nc2nc(SCc3ccccc3)[nH]n2c(=O)c1C`, `Cc1[nH]c2ccccc2c1C(=O)CSc1nccc(=O)[nH]1` is higher in “hERG current change (%, negative = inhibition) at 10uM” value: 9.25% for the first, 31.2% for the second.

Compared with `C/C(=N/NC(=O)C1COc2ccccc2O1)c1ccco1` (centres unmarked), `O=C(N/N=C/C(Cl)=C/c1ccccc1)c1ccc2c(c1)OCO2` is lower in “hERG current change (%, negative = inhibition) at 10uM” value: 5.52% for the first, 0.853% for the second.

Going from `Cc1ccc(NC(=O)c2sc3ccccc3c2Cl)nc1` to `COc1cccc(-c2cc(C(=O)NC3CCCC3)c3ccccc3n2)c1`, the “hERG current change (%, negative = inhibition) at 10uM” value falls from 8.87% to -36.8%.

First: COc1ccc(-n2nnc3c(SCC(=O)Nc4ccccc4F)ncnc32)cc1
Second: COc1ccc(-n2nnnc2SCC(=O)Nc2ccc3c(c2)OCCO3)c(OC)c1
The “hERG current change (%, negative = inhibition) at 10uM” value of the first is higher: 18.9% for the first, 9.4% for the second.

Compared with `CC1CC(C)CN(CCCNC(=O)COc2cc(=O)n(C)c3ccccc23)C1` (centres unmarked), `COc1cccc(OC)c1C(=O)OCC(=O)N1CC(C)CC(C)C1` (centres unmarked) is higher in “hERG current change (%, negative = inhibition) at 10uM” value: -8.61% for the first, 14.8% for the second.

Going from `Oc1ccc(/C=N/Nc2cc(N3CCCC3)nc(N3CCCC3)n2)cc1O` to `Cc1cc(S(=O)(=O)N2CCCC2)ccc1OCC(=O)N1CCCCC1`, the “hERG current change (%, negative = inhibition) at 10uM” value falls from 4.95% to -17.9%.

Compared with `O=c1nc(NCc2ccco2)sc2ncccc12`, `COc1ccccc1C(=O)Nc1ccc(-c2nnn(CC(=O)NCc3ccco3)n2)cc1` is higher in “hERG current change (%, negative = inhibition) at 10uM” value: 7.83% for the first, 12% for the second.

Going from `CCN(CC)S(=O)(=O)c1ccc(C(=O)NCC(=O)NC2CC2)cc1` to `CN(c1ccccc1C(=O)NC1CCCCC1)S(=O)(=O)c1ccccc1`, the “hERG current change (%, negative = inhibition) at 10uM” value rises from 2.9% to 7.58%.

Going from `Cc1cc(C)c(S(=O)(=O)N2CCOC2CNC(=O)C(=O)NCCc2c[nH]c3ccccc23)c(C)c1` (centres unmarked) to `CCOC(=O)c1[nH]c2ccc(OCC)cc2c1NC(=O)CN1CCN(c2ccccc2)CC1`, the “hERG current change (%, negative = inhibition) at 10uM” value rises from -2.75% to 17.9%.

Going from `O=C(N/N=C/c1ccc([N+](=O)[O-])cc1)c1cc2ccccc2o1` to `O=C(O)COc1ccc(/C=N/NC(=O)c2cccc3ccccc23)cc1`, the “hERG current change (%, negative = inhibition) at 10uM” value rises from 14.1% to 15.2%.

Compared with `CCOc1ccc(OCCCCOc2ccccc2C(C)=O)cc1`, `CCCOc1ccc(C(=O)Nc2cccnc2)cc1` is higher in “hERG current change (%, negative = inhibition) at 10uM” value: -17% for the first, 3.01% for the second.

Compared with `COc1ccc(N2CCN(CC(=O)Nc3cccc(S(=O)(=O)N4CCOCC4)c3)CC2)cc1.Cl`, `Cc1ccccc1-c1nnn(CC(=O)Nc2cccc(S(N)(=O)=O)c2)n1` is higher in “hERG current change (%, negative = inhibition) at 10uM” value: -21.7% for the first, -14.2% for the second.

First: CN(Cc1nc2ccccc2s1)C(=O)c1ccc(F)cc1
Second: Cn1nc(C(=O)NCc2ccc(F)cc2)c2ccccc2c1=O
The “hERG current change (%, negative = inhibition) at 10uM” value of the first is lower: -61% for the first, -12.8% for the second.

First: Cc1ccccc1OCC(=O)N/N=C/c1ccc2c(c1)OCCO2
Second: COc1cccc(NC(=O)COc2ccccc2C(N)=O)c1
The “hERG current change (%, negative = inhibition) at 10uM” value of the first is lower: -27.1% for the first, -1.66% for the second.

Compared with `CCCOc1ccc(NC(=O)C(=O)NCCCn2ccnc2)cc1`, `CCCC(=O)Nc1ccc(NC(=S)NC(=O)c2cccs2)cc1` is higher in “hERG current change (%, negative = inhibition) at 10uM” value: -37% for the first, 8.56% for the second.

Compared with `O=C(O)c1cccc(CN2C(=O)S/C(=C/c3ccccc3[N+](=O)[O-])C2=O)c1`, `Cc1c(Cc2ccc3c(c2)OCO3)sc(NC(=O)c2ccccc2)c1C(N)=O` is higher in “hERG current change (%, negative = inhibition) at 10uM” value: 3.28% for the first, 5.34% for the second.

Compared with `Cc1ccc(NC(=O)NCCSc2ccc(C)cc2)cc1`, `CC1=NN(c2ccccc2)C(=O)C1N=Nc1ccc(C)cc1` (centres unmarked) is higher in “hERG current change (%, negative = inhibition) at 10uM” value: 8.7% for the first, 12.2% for the second.

Compared with `CCOC(=O)NC(=O)CSc1nnnn1-c1ccccc1`, `CCOC(=O)CNC(=O)c1sc(NC(=O)/C=C/c2ccccc2)nc1C` is higher in “hERG current change (%, negative = inhibition) at 10uM” value: 3.92% for the first, 7.9% for the second.

Compared with `COc1ccc(CNC(=S)N/N=C/c2ccncc2)cc1`, `COc1ccc(C2=NS(=O)(=O)N(C)C(C(=O)NCc3ccccn3)=C2)cc1` is lower in “hERG current change (%, negative = inhibition) at 10uM” value: -10.5% for the first, -33.9% for the second.

Going from `C/C(=N\NC(N)=S)C12CC3CC(CC(C3)C1)C2` to `Nc1nnc(N2CCCCC2)s1`, the “hERG current change (%, negative = inhibition) at 10uM” value falls from 12.1% to -7.04%.

Going from `CCOC(=O)c1cnc2c(C(=O)OC)cccc2c1NCCN1CCOCC1` to `CCOC(=O)c1cnc2c(C(F)(F)F)cccc2c1NCCCN1CCOCC1`, the “hERG current change (%, negative = inhibition) at 10uM” value rises from -70% to -27.8%.

Going from `O=C(CN1C(=O)/C(=C/c2c(F)cccc2Cl)Oc2ccccc21)NCc1ccco1` to `O=C(NCc1ccco1)C1CCCN1S(=O)(=O)c1ccc2ccccc2c1` (centres unmarked), the “hERG current change (%, negative = inhibition) at 10uM” value falls from 10.9% to -5.75%.

Compared with `Cc1cc(/C=N/NC(=O)C(O)(c2ccccc2)c2ccccc2)c(C)n1-c1ccc(C(=O)O)cc1`, `O=C(O)c1cccc(NC(=O)c2cn(-c3ccccc3)nc2-c2cc3ccccc3o2)c1` is lower in “hERG current change (%, negative = inhibition) at 10uM” value: 15.7% for the first, 1.49% for the second.

Compared with `O=[N+]([O-])c1ccc(/C=N\NS(=O)(=O)c2ccc(F)cc2)o1`, `O=C1c2ccccc2C(=O)N1OS(=O)(=O)c1ccc(F)cc1` is higher in “hERG current change (%, negative = inhibition) at 10uM” value: 0.171% for the first, 21.7% for the second.

First: Cc1c(N2C(=O)CS/C2=N\N=C\c2ccc(Cl)cc2)c(=O)n(-c2ccccc2)n1C
Second: Cc1cc(C(=O)OCC(=O)N2c3ccccc3NC(=O)C2(C)C)c(C)n1-c1ccccc1
The “hERG current change (%, negative = inhibition) at 10uM” value of the first is lower: -32.2% for the first, 14% for the second.

First: O=C(O)CC(NC(=O)C(c1ccccc1)c1ccccc1)c1cccc([N+](=O)[O-])c1 (centres unmarked)
Second: Cc1cc(C)n2nc(C(=O)NC(c3ccccc3)c3ccccc3)nc2n1
The “hERG current change (%, negative = inhibition) at 10uM” value of the first is higher: 2.05% for the first, -13.4% for the second.

First: CCOC(=O)c1c(N)sc(C(=O)N(C)C)c1CN1CCOCC1
Second: CCCNC(=O)Cn1cnc2sc(C(=O)N3CCN(c4ccc(F)cc4)CC3)c(C)c2c1=O
The “hERG current change (%, negative = inhibition) at 10uM” value of the first is higher: -1.37% for the first, -32.1% for the second.

Compared with `O=C(Nc1ccccc1Cl)c1cccc(COc2cc(Cl)ccc2Cl)c1`, `O=C(Nc1cccc(Cl)c1)Nc1ccc2nccnc2c1` is higher in “hERG current change (%, negative = inhibition) at 10uM” value: 5.62% for the first, 19.1% for the second.

Going from `Cn1c(=O)c2[nH]c(COc3ccc(C(C)(C)C)cc3)nc2n(C)c1=O` to `CCCCn1c(CN2CCN(C(=O)c3ccco3)CC2)nc2c1c(=O)n(C)c(=O)n2C`, the “hERG current change (%, negative = inhibition) at 10uM” value rises from -55.1% to -34.1%.

Going from `Cc1nn(C(=O)Cn2ccc([N+](=O)[O-])n2)c(C)c1Cl` to `CC(C)CC1NC(=O)N(CC(=O)N2CCN(S(=O)(=O)c3ccc(Cl)cc3)CC2)C1=O` (centres unmarked), the “hERG current change (%, negative = inhibition) at 10uM” value falls from 10.3% to -40.9%.

Compared with `COc1cc(OC)cc(C(=O)NCc2n[nH]c(=S)n2-c2ccccc2OC)c1`, `COc1cc(OC)cc(C(=O)NC2CCCCCCC2)c1` is lower in “hERG current change (%, negative = inhibition) at 10uM” value: 23.3% for the first, 2.13% for the second.

First: Cc1cccc(NC(=S)NC(NC(=O)c2ccco2)C(Cl)(Cl)Cl)c1 (centres unmarked)
Second: CCOC(=O)Nc1cccc(Nc2ccccc2)c1
The “hERG current change (%, negative = inhibition) at 10uM” value of the first is higher: 1.39% for the first, -74.8% for the second.

First: CCCNC(=S)NNC(=O)c1cc(-c2cccnc2)nc2ccccc12
Second: Cc1ccc2[nH]c(=O)c(CN(Cc3cccnc3)C(=O)c3ccncc3)cc2c1
The “hERG current change (%, negative = inhibition) at 10uM” value of the first is higher: 15.7% for the first, -11.8% for the second.

Compared with `CC1CCC2(CC1)NC(=S)N(c1ccccc1)N2` (centres unmarked), `CC(=O)N1CC2(NC(=O)c3ccccc3N2)c2ccccc21` (centres unmarked) is lower in “hERG current change (%, negative = inhibition) at 10uM” value: 16.9% for the first, 5.27% for the second.

Compared with `COc1ccc(C(=O)C2CCCN(C(=O)c3cccnc3OC)C2)cc1F` (centres unmarked), `COc1ccc(CNC(=O)COC(=O)CCCOc2ccc(Cl)cc2Cl)cc1OC` is higher in “hERG current change (%, negative = inhibition) at 10uM” value: -4.56% for the first, 1.57% for the second.

Going from `Nc1nnn(CC(=O)N/N=C/c2ccco2)n1` to `Cc1ccc(CNC(=O)c2ccc(N3CCC4(CC3)CC(c3ccccc3)=NO4)c(N)c2)cc1`, the “hERG current change (%, negative = inhibition) at 10uM” value falls from 13.1% to 11.8%.

First: CCc1cc2c(=O)c(-c3nc4ccccc4n3C)c(C(C)C)oc2c(CN2CCN(C)CC2)c1O
Second: OCCCC1CCCN(Cc2cn[nH]c2-c2ccc(F)cc2F)C1 (centres unmarked)
The “hERG current change (%, negative = inhibition) at 10uM” value of the first is lower: -13.4% for the first, -8.02% for the second.

First: O=C(CCCCCCCC(=O)c1ccccc1)c1ccccc1
Second: O=C(Nc1ccccc1)c1oc2ccccc2c1NC(=O)C1CC1
The “hERG current change (%, negative = inhibition) at 10uM” value of the first is higher: 23.2% for the first, 2.8% for the second.

First: CCCOC1OC(=O)c2c1ccc(OC)c2OC (centres unmarked)
Second: Cc1noc2ncnc(Oc3ccc(Cl)cc3Cl)c12
The “hERG current change (%, negative = inhibition) at 10uM” value of the first is higher: 7.64% for the first, 6.58% for the second.

Compared with `COc1ccc(/C=C(\NC(=O)c2ccccc2)C(=O)NC2CCS(=O)(=O)C2)cc1` (centres unmarked), `C=CCC(C#Cc1ccc(C)cc1)N(CC)CC` (centres unmarked) is lower in “hERG current change (%, negative = inhibition) at 10uM” value: -9.78% for the first, -17.3% for the second.

In the case of `Cn1c(O)c(/C=C2/C=CC=N2)c(=O)[nH]c1=O`, the “hERG current change (%, negative = inhibition) at 10uM” value is reported as 1.78%.
